In paper PMC4336329 (PLoS ONE, 2015):
Out of some 310,000 compounds screened, about 2,200 (0.71%) showed an effect of 50% or more. The effect is printed as a negative number. This is one part of the list.

Target: human ether-à-go-go-related gene (hERG) potassium channel (human, UniProt Q12809)
Assay: primary screen, population patch clamp on CHO cells stably expressing hERG

Chain of human ether-à-go-go-related gene (hERG) potassium channel (Q12809 whole entry, looked up): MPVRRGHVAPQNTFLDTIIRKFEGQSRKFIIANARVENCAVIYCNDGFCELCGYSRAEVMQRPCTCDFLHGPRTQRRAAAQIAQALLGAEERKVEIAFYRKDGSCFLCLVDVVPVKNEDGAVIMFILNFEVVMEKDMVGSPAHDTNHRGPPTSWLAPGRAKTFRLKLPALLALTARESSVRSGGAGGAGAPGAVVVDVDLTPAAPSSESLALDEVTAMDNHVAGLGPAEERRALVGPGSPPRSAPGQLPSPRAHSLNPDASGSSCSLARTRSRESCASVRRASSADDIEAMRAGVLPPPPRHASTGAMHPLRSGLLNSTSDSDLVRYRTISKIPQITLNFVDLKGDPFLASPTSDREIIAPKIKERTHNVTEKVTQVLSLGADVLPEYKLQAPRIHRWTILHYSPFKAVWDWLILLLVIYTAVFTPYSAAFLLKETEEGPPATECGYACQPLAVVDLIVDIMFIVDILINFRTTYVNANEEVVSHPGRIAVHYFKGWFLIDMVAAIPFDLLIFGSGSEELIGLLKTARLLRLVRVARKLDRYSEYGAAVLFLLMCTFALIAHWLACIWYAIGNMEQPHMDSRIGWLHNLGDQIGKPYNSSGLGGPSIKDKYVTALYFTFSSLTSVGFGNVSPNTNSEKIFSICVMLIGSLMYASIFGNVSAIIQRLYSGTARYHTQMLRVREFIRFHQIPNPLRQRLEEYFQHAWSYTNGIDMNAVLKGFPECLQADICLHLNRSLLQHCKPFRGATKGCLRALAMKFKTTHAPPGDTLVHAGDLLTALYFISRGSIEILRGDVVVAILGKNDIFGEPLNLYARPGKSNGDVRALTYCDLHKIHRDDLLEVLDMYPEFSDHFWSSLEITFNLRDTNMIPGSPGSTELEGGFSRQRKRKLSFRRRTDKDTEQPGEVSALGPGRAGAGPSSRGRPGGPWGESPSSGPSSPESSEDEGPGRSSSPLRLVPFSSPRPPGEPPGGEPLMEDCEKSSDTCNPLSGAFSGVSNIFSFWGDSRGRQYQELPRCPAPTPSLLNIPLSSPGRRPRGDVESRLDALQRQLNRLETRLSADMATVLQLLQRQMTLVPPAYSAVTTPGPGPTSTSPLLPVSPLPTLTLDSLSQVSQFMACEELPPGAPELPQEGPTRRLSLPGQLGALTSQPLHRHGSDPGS

| SMILES | hERG current change (%, negative = inhibition) at 1uM [%] |
| --- | --- |
| CC(C)C(C(=O)OCC(=O)c1cccc([N+](=O)[O-])c1)N1C(=O)[C@@H]2[C@H]3CC[C@H](C3)[C@@H]2C1=O (stereo partly shown) | 10.1 |
| Cc1ccc(Nc2nc(N)c3ccccc3n2)cc1Cl.Cl | 16.8 |
| CC(C)C(=O)Nc1nnc(CCc2nnc(NC(=O)C(C)C)s2)s1 | 11.6 |
| Cc1c(Cc2ccc3c(c2)OCO3)sc(NC(=O)C(C)(C)C)c1C#N | 11 |
| Cc1ccc(N2C(=O)[C@@H]3C(c4cccnc4)=NO[C@@H]3C2=O)cc1 | 14.5 |
| CCOC(=O)c1ccccc1OCc1cc(/C=N/n2cnnc2)ccc1OC | 14.8 |
| Cc1ccc(S(=O)(=O)NNC(=O)C2Cc3c(ccc4ccccc34)O2)cc1 (stereo not shown) | 18.1 |
| CCc1cc2c(N3CCN(c4ccccc4)CC3)ncnc2s1 | 5.04 |
| Cc1cc(N=NC(=O)c2ccccc2)ccc1O | 12.5 |
| CCCCNC(=S)NNC(=O)c1ccc(Br)o1 | 8.06 |
| Brc1ccc2ncnc(Nc3ccc(N4CCOCC4)cc3)c2c1 | -15.8 |
| CCOC(=O)c1c(CNc2ccncc2)n(C)c2cc(Br)c(O)cc12.Cl | 9.61 |
| Cc1cc(C)n(-c2ccc([N+](=O)[O-])cc2)n1 | 6.72 |
| CC(NS(=O)(=O)c1cn(C)c(=O)n(C)c1=O)c1ccccc1 (stereo not shown) | -0.535 |
| CCc1nn(C(CC)C(=O)NCCCN2CC(C)CC(C)C2)c(=O)c2cc3oc(C)cc3n12 (stereo not shown) | -11.1 |
| COc1ccc(OC)c(/C=N/N=C(\N)c2nonc2N)c1 | 9.32 |
| CN(C(=O)CSc1nc2ccccc2[nH]1)C1CCS(=O)(=O)C1 (stereo not shown) | 14.7 |
| COc1ccccc1C(=O)COC(=O)CN1C(=O)C2CC=CCC2C1=O (stereo not shown) | 27.1 |
| CCOc1cccc(OCCCCN2CCOCC2)c1 | -3.9 |
| CCNS(=O)(=O)c1ccc(CCC(=O)NCc2ccccn2)cc1 | 9.81 |
| CC1=NN(c2ccccc2)C(=O)/C1=C/c1cccs1 | 6.03 |
| CSc1nc2cc(C)nn2c(-c2ccccc2)c1C#N | 11 |

| SMILES | hERG current change (%, negative = inhibition) at 1uM [%] |
| --- | --- |
| CCOc1ccc(C2NC(=O)C(C#N)=C(S)N2c2cccc(C)c2)cc1OC (stereo not shown) | 16.8 |
| O=c1cc(-c2ccc(O)cc2)oc2c(C3OCC(O)C(O)C3O)c(O)c(C3OC(CO)C(O)C(O)C3O)c(O)c12 (stereo not shown) | 10.3 |
| O=S(=O)(Nc1cccnc1)c1ccc2c(c1)OCCO2 | 23.4 |
| CCC(C)(C)C1CCC2(CC1)NC(=O)N(CC(=O)NCCOc1ccccc1)C2=O (stereo not shown) | 3.26 |
| Cc1cnc(C(=O)OCC(=O)Nc2ccc(C)c(S(=O)(=O)N(C)C)c2)cn1 | 11.1 |
| CCNC(=O)NC(=O)C(C)OC(=O)c1ccc(SC)cc1OC (stereo not shown) | 11.9 |
| O=C(c1cccc(F)c1)N1CCN(c2cccc(Cl)c2)CC1 | 3.05 |
| CCCCC(=O)Nc1cccc(NC(=S)NC(=O)C(C)C)c1 | 14.3 |
| CN1CCN(S(=O)(=O)c2cccc(S(=O)(=O)c3ccc(Cl)c(Cl)c3)c2)CC1 | -0.389 |
| COc1cccc(N2CCN(C(=O)NC3CCCCC3)CC2)c1 | -1.67 |
| O=S(=O)(NCc1cc(-c2ccccc2)no1)c1ccccc1 | 11.1 |
| COc1ccccc1CN(C(=O)CNC(=O)c1ccco1)C(C(=O)NCC1CCCO1)c1ccccc1 (stereo not shown) | 26.5 |
| Cn1c(SCC(=O)N2CCN(c3ccccc3)CC2)nnc1-c1ccncc1 | -2.89 |
| CCOC(=O)c1cccc(NC(=O)CN(c2ccc(OC)cc2)S(=O)(=O)c2c(C)noc2C)c1 | -10 |
| CC(=O)c1cccc(NC(=S)Nc2ccn(Cc3cccc4ccccc34)n2)c1 | 5.35 |
| O=C(Nc1nnc(S(=O)(=O)N2CCCCC2)s1)c1cccc(Br)c1 | 5.53 |
| CC[C@@H]1C(=O)OC[C@@H]1Cc1cncn1C.Cl | -1.02 |
| O=C(CSC1=NCCN1)NC(c1ccccc1)c1ccccc1 | 6.11 |
| COc1cccc(-c2nnc(-c3ccc(C(F)(F)F)cc3)o2)c1OC | 4.21 |
| CC1CCC(C(C)C)C(OC(=O)C[n+]2cccc(C(N)=O)c2)C1.[Cl-] (stereo not shown) | 10 |
| COc1cc(C2C(C#N)=C(N)Oc3cc4c(cc32)OCO4)cc(OC)c1OC (stereo not shown) | 11.4 |
| CCC(OC(=O)c1cccs1)C(=O)NC1CCCCC1 (stereo not shown) | -3.56 |

| SMILES | hERG current change (%, negative = inhibition) at 1uM [%] |
| --- | --- |
| COc1ccc2[nH]c(=O)c(CN(Cc3nnnn3Cc3ccccc3)CC3CCCO3)cc2c1 (stereo not shown) | 7.22 |
| CN(C)Cc1nc2ccccc2c(=O)n1Cc1nc(C(C)(C)C)cs1 | 1.55 |
| CCCc1nnc(NC(=O)CCCN2C(=O)c3ccccc3C2=O)s1 | 9.34 |
| COc1ccccc1NC(=O)CSc1nnc(Cc2cccn2C)n1-c1ccc(F)cc1 | -4.57 |
| Cc1cccc(/C=N/NC(=O)Cn2nnnc2N)n1 | 19.8 |
| Cc1ccc(S(=O)(=O)NCc2cn3c(C)csc3n2)cc1 | 8.67 |
| Cc1cc(N2C(=O)CCC2=O)n(-c2ccccc2)n1 | 3.09 |
| O=C(NCCCN1CCOCC1)c1ccc(CNS(=O)(=O)c2ccc(F)cc2)cc1 | 15.2 |
| O=C(c1sc2cc(Cl)ccc2c1Cl)N1CCN(CCc2ccccn2)CC1 | -36.6 |
| Cc1csc2nc(COC(=O)c3cccc(N(C)C)c3)cc(=O)n12 | -2.57 |
| C=CCn1c(SCC(C)=O)nnc1-c1ccc2ncccc2c1 | 15.6 |
| CCc1nnc(NS(=O)(=O)c2ccc(NS(=O)(=O)c3ccccc3)cc2)s1 | 0.102 |
| N#Cc1c(N)nc(N2CCCC2)c(C#N)c1-c1ccc(Cl)cc1 | 4.22 |
| CCOC(=O)c1nnc(-c2ccccc2)nc1NCc1ccccc1 | -2.03 |
| O=C(Nc1ccc(O)c(C(=O)O)c1)Oc1ccccc1 | 14.6 |
| CC(C(=O)N1CCCCC1)N1CCN(S(=O)(=O)c2ccc(Cl)cc2)CC1.O=C(O)C(=O)O (stereo not shown) | 6.84 |
| CC(C)C(=O)Nc1cccc(C(=O)Nc2nnc(C(C)(C)C)s2)c1 | -4.54 |
| CCOC(=O)N1CCN(CCc2ccccc2)CC1 | 3.28 |
| O=C(COc1ccc(F)cc1)NCC1(N2CCOCC2)CCCCC1 | -3.47 |
| CCOC(=O)c1ccc(NC(=O)c2nn(C)cc2Br)cc1 | 10.4 |
| COC(=O)C1=C(C)NC2=C(C(=O)CCC2)C1c1ccc(-c2ccsc2C(=O)OC)o1 (stereo not shown) | 13.1 |
| Cc1ccccc1C(=O)N1CCC(C(=O)N(CC(C)C)c2c(N)n(CC(C)C)c(=O)[nH]c2=O)CC1 | 8.46 |

| SMILES | hERG current change (%, negative = inhibition) at 1uM [%] |
| --- | --- |
| CC(C(=O)Nc1ccc(F)cc1Cl)N1CCN(S(=O)(=O)c2cccs2)CC1 (stereo not shown) | 0.389 |
| COc1cccc(N2CCN(C(=O)c3cccnc3)CC2)c1 | 9.47 |
| CC(C)[C@H](NC(=O)c1ccc(Br)cc1)C(=O)NC1CCCCC1 | 11.7 |
| Cc1ccc(S(=O)(=O)CC2CSc3nc(N)cc(=O)n32)cc1 (stereo not shown) | 3.32 |
| COc1cc2c(cc1OC)CN(C(=O)c1ccc(OC)c(S(=O)(=O)N3CCOCC3)c1)CC2 | 7.1 |
| O=C(Nc1ccc(Cc2ccncc2)cc1)c1ccc([N+](=O)[O-])o1 | -1.3 |
| O=C(NCc1cccnc1)/C(=C/c1ccccc1)NC(=O)c1ccccc1 | -23.3 |
| CC(C)Cc1nc(SCC(=O)N2CCCC2)c2c(=O)n(C)c(=O)n(C)c2n1 | 4.33 |
| CSc1ncccc1C(=O)OCC(=O)c1cc2ccccc2o1 | 9.85 |
| O=C(Cn1ccc(NC(=O)OCc2ccccc2)nc1=O)NCCc1ccccn1 | 9.78 |
| COC(=O)c1nnn(-c2nonc2N)c1CSc1nnc(C)s1 | 5.18 |
| Cc1nn(CC(=O)NCCN2CCOCC2)c(=O)c2ccccc12 | 22.4 |
| CC(C)Cn1c(-c2csc3c2CCCC3)n[nH]c1=S | 7.94 |
| O=C(Nn1cc(C(=O)N2CCN(c3ccccc3F)CC2)c2ccccc2c1=O)c1cnccn1 | 6.91 |
| CN(C)S(=O)(=O)c1cccc(NC(=O)c2ccc(OC(F)(F)F)cc2)c1 | -8.11 |
| COC(=O)[C@@]1(Cc2ccc(F)cc2)[C@H]2c3cc(C(=O)N4CCCC4)n(CCc4ccc(O)c(O)c4)c3C[C@H]2CN1C(=O)c1ccccc1 | 3.19 |
| COc1ccc(NC(=O)c2c(Cl)n(C)c3ccccc23)cc1 | 10.2 |
| O=C(C1CCN(S(=O)(=O)Cc2ccccc2)CC1)N1CCN(c2ncccn2)CC1 | 7.38 |
| Cc1noc(NC(=O)c2ccccc2C(F)(F)F)c1C#N | -8.8 |
| Cc1c(-c2ccnc3cc(C(=O)O)nn23)cnn1C | 8.16 |
| Cc1onc(-c2ccccc2)c1C(=O)N/N=C/c1ccc([N+](=O)[O-])c(O)c1 | 7.51 |
| S=c1[nH]nc(-c2ccncc2)n1Cc1ccco1 | 14.1 |
